Laboratory results from article PMC12101129, “An optimized CYP3A4-activatable fluorogenic sensor for in situ functional imaging and multi-dimensional inhibitor assessment” (Chemical Science, 2025).

B1: CYP3A4 (Homo sapiens) (protein)
chain: MALIPDLAMETWLLLAVSLVLLYLYGTHSHGLFKKLGIPGPTPLPFLGNILSYHKGFCMFDMECHKKYGKVWGFYDGQQPVLAITDPDMIKTVLVKECYSVFTNRRPFGPVGFMKSAISIAEDEEWKRLRSLLSPTFTSGKLKEMVPIIAQYGDVLVRNLRREAETGKPVTLKDVFGAYSMDVITSTSFGVNIDSLNNPQDPFVENTKKLLRFDFLDPFFLSITVFPFLIPILEVLNICVFPREVTNFLRKSVKRMKESRLEDTQKHRVDFLQLMIDSQNSKETESHKALSDLELVAQSIIFIFAGYETTSSVLSFIMYELATHPDVQQKLQEEIDAVLPNKAPPTYDTVLQMEYLDMVVNETLRLFPIAMRLERVCKKDVEINGMFIPKGVVVMIPSYALHRDPKYWTEPEKFLPERFSKKNKDNIDPYIYTPFGSGPRNCIGMRFALMNMKLALIRVLQNFSFKPCKETQIPLKLSLGGLLQPEKPVVLKVESRDGTVSGA
notes: purchased Cypex
B2: human liver microsomes (HLMs) (Homo sapiens) (protein)
chain: MALIPDLAMETWLLLAVSLVLLYLYGTHSHGLFKKLGIPGPTPLPFLGNILSYHKGFCMFDMECHKKYGKVWGFYDGQQPVLAITDPDMIKTVLVKECYSVFTNRRPFGPVGFMKSAISIAEDEEWKRLRSLLSPTFTSGKLKEMVPIIAQYGDVLVRNLRREAETGKPVTLKDVFGAYSMDVITSTSFGVNIDSLNNPQDPFVENTKKLLRFDFLDPFFLSITVFPFLIPILEVLNICVFPREVTNFLRKSVKRMKESRLEDTQKHRVDFLQLMIDSQNSKETESHKALSDLELVAQSIIFIFAGYETTSSVLSFIMYELATHPDVQQKLQEEIDAVLPNKAPPTYDTVLQMEYLDMVVNETLRLFPIAMRLERVCKKDVEINGMFIPKGVVVMIPSYALHRDPKYWTEPEKFLPERFSKKNKDNIDPYIYTPFGSGPRNCIGMRFALMNMKLALIRVLQNFSFKPCKETQIPLKLSLGGLLQPEKPVVLKVESRDGTVSGA
notes: tissue Bioreclamation IVT lot No. X008067; host or cells: pooled human liver microsomes from 50 donors

How the values were obtained:
[1] = substrate: O=C1c2cccc3cccc(c23)C(=O)N1CC1CC1; test: Enzyme kinetic analysis of NCN 4-hydroxylation in CYP3A4; type: biochemical, human; conditions: other: NCN 4-hydroxylation, enzyme source CYP3A4; 37.0 °C
Description: (§1) 1.6. P450 reaction phenotyping and chemical inhibition assays
(§2) P450 reaction phenotyping analysis of NCN was determined using a panel of human recombinant cytochrome P450 enzymes, while the inhibitory effects of CYP specific inhibitors on NCN 4-hydroxylation in HLMs were assessed. The final concentration of each human recombinant CYP enzyme in the incubation system was 5 nM. Briefly, each sample was co-incubated with NCN at 37 °C for 30 min, the formation rate of HNCN was determined to assess the metabolic specificity of NCN.
(§3) Gaussian program conducted a GMMX conformational analysis using a DFT/B3LYP/6-31G(d) pre-optimized 3D geometry. The resulting GMMX conformers were optimized at B3LYP/6-31G(d) level. Moreover, all conformers were real minima, as no imaginary vibrational frequencies were found. The energy ranking was performed to find the minimum energy conformer. The minima conformer was optimized at B3LYP /6-311G(d,p) level. The molecular orbital energy levels and electrostatic potential (ESP) were calculated at the DFT/B3LYP/6-311G(d,p) level.
(§4) Frontier orbital and ESP were depicted by Multiwfn (Lu and Chen 2011) and VMD […]
(§5) 1.8. Enzyme kinetic analysis
(§6) The kinetic parameters of NCN 4-hydroxylation in HLMs were determined by performing a set of hydroxylation kinetic assays. Kinetic parameters (K m and Vmax) for NCN 4-hydroxylation were fitted by the following equation (a): […]

[2] = substrate: O=C1c2cccc3cccc(c23)C(=O)N1CC1CC1; test: Enzyme kinetic analysis of NCN 4-hydroxylation in HLMs; type: biochemical, human; conditions: other: NCN 4-hydroxylation, enzyme source HLMs; 37.0 °C
Description: as §1, §2, §3, §4, §5, §6

| Protein | Km [1] | kcat [1] | Km [2] |
| --- | --- | --- | --- |
| B1 | 4.27 ± 0.45 µM | 10.01 nmol/min/nmol P450 | – |
| B2 | – | – | 5.52 ± 0.52 µM |
